# Assay results taken from the supplement of paper PMC9446081.
# The whole screen tested about 39,000 compounds, of which about 220 (0.56%) showed activity. The list shows a part of the results.
# System: Escherichia coli K-12 BW25113
# Test: relative growth (OD600 normalised to plate interquartile mean) (fraction); higher = less growth inhibition, active = 0.2 or less
# Conditions: 50 µM; LB; incubation time: overnight (16-24 h)
# 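Note: static incubation at 37 °C against the wild-type strain, values averaged over two biological replicates.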
row,Structure (SMILES),relative growth
1,C[C@H]1CN([C@@H](C)CO)S(=O)(=O)c2ccc(C#Cc3ccccc3)cc2O[C@H]1CN(C)S(=O)(=O)c1cn(C)cn1,inactive: 1.03
2,O=C(C[C@@H]1CC[C@H]2[C@@H](COC[C@@H](O)CN2C(=O)c2ccncc2)O1)NCc1ccc(-c2ccccc2)cc1,inactive: 1.02
3,COc1ccc2c3c(n(c2c1)C)[C@@H](CO)N(C[C@]13CCN(CC1)C(=O)CN(C)C)C(=O)C1CCCCC1,inactive: 0.994
4,Cc1noc(C)c1NC(=O)N(C)C[C@H]1Oc2ccc(NS(=O)(=O)c3ccccc3)cc2CC(=O)N([C@@H](C)CO)C[C@@H]1C,inactive: 1.01
5,C[C@@H]1CCCCO[C@H](CN(C)C)[C@H](C)CN([C@@H](C)CO)C(=O)c2cc(NC(=O)Nc3ccc(C(F)(F)F)cc3)ccc2O1,inactive: 0.982
6,CC(C)NC(=O)Nc1ccc2c(c1)C(=O)N([C@H](C)CO)C[C@@H](C)[C@@H](CN(C)S(=O)(=O)c1cn(C)cn1)OCCCC[C@H](C)O2,inactive: 1.02
7,C=c1nc(C)sc1=C1NN=C(N)O1,inactive: 1.02
8,CCc1[nH]c(=S)[nH]c(=O)c1C#N,inactive: 1.02
9,CC(C)NC(=O)N(C)C[C@H]1OCCCC[C@H](C)Oc2ccc(NC(=O)C3CCCCC3)cc2C(=O)N([C@@H](C)CO)C[C@@H]1C,inactive: 1
10,CC(C)NC(=O)Nc1ccc2c(c1)C(=O)N([C@H](C)CO)C[C@@H](C)[C@H](CN(C)Cc1ccc(-c3ccccc3)cc1)O2,inactive: 1.01
11,CNC[C@@H]1OCCCC[C@H](C)Oc2ccc(NS(=O)(=O)c3cn(C)cn3)cc2C(=O)N([C@@H](C)CO)C[C@H]1C,inactive: 1
12,Nc1nccnc1Cl,inactive: 0.997
13,CCNC(=O)C[C@H]1C=C[C@H](NC(=O)C2CC2)[C@H](CO)O1,inactive: 1.01
14,C[C@H](CO)N1C[C@H](C)[C@@H](CN(C)C(=O)Nc2cccc3ccccc23)Oc2c(NS(=O)(=O)c3ccccc3)cccc2C1=O,inactive: 0.99
15,O=C1NCc2ccccc21,inactive: 1.04
16,Cn1cc(-c2cc3c(N4CCN(c5ncc([C@@](C)(N)c6ccc(F)cc6)cn5)CC4)ncnn3c2)cn1,inactive: 0.955
17,C[C@@H]1CN([C@@H](C)CO)C(=O)c2cc(NC(=O)Nc3ccc4c(c3)OCO4)ccc2O[C@H]1CN(C)C(=O)Nc1ccc(C(F)(F)F)cc1,inactive: 1
18,C[C@@H]1CCCCO[C@H](CN(C)C(=O)c2ccncc2)[C@H](C)CN([C@H](C)CO)C(=O)c2cc(NS(=O)(=O)c3cn(C)cn3)ccc2O1,inactive: 0.974
